Data taken from PubChem BioAssay AID1347073 (National Center for Advancing Translational Sciences (NCATS), 2019).
In all, about 45,000 compounds went through this assay and about 200 (0.44%) were called active. Roughly 7% stayed inconclusive and do not appear here. Calls follow the shape of the dose curve; as a rule, active = well fitted activation curve with a large enough effect; inconclusive = small, poorly fitted or top-dose-only effect; inactive = no such curve, though single readings can be large or run the other way. The list shows a part of the results.

Experiment: qHTS of TDP-43 Inhibitors: NCGC Sytravon Library Screen; also: 0% is about no effect; nearly all actives have a fitted effect of over 55% in size
Conditions: yeast TDP-43 toxicity rescue, BacTiter-Glo growth, 24 h; series mostly up to 46.1 µM; growth rescue (activation): at the top concentration
Method in brief: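 TDP-43-expressing yeast, pregrown in raffinose, seeded at OD600 0.02 in galactose medium with compound for 24 hr at 30 deg C. Growth read by BacTiter-Glo luminescence, so rescue of toxicity appears as activation.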

Row | Structure (SMILES) | growth rescue (activation)
1 | Nc1c(NCCN2CCCCC2)c2ccccc2oc1=O | inactive: 11.4%
2 | N/C(=N\c1nc2ccccc2o1)NC(=O)c1ccc([N+](=O)[O-])cc1 | inactive: 10.7%
3 | O=C(O)C1CCN(S(=O)(=O)c2cccs2)CC1 | inactive: 11.2%
4 | Cn1c(NCCc2ccccc2)cc(=O)n(C)c1=O | inactive: -11.8%
5 | COc1ccc(Cc2nnc(NC(=O)Nc3ccccc3OC)s2)cc1 | inactive: -0.196%
6 | Cc1cc(NC(=O)c2ccc3c(c2)C(=O)N(c2cccc(C)c2C)C3=O)no1 | inactive: 22.4%
7 | CCc1nnc(NC(=O)CCC(=O)NC2CCCc3ccccc32)s1 (configuration not stated) | inactive: 1.9%
8 | COc1ccc(-n2cc(CNC3CCN(C)CC3)c(-c3cccc(F)c3)n2)cc1 | inactive: -0.552%
9 | CC(C)c1ccc(NC(=O)Nc2nc(CN)cs2)cc1 | inactive: -5.64%
10 | CC(=NNC(=O)Cn1ccc(C(F)(F)F)n1)c1ccc(-n2ccnc2)cc1 | inactive: 9.42%
11 | COc1ccc(NC(=O)c2cc(C3CCCCN3S(=O)(=O)c3c(C)noc3C)on2)c(C)c1 (configuration not stated) | inactive: 6.29%
12 | CN(Cc1cccs1)C(=O)Cc1c[nH]c2ccccc12 | inactive: 4.14%
13 | Cc1cc(N/N=C/c2cccc([N+](=O)[O-])c2)nc(-n2nc(C)cc2C)n1 | inactive: 19.1%
14 | CCOC(=O)C1(C)CCCN(C(=O)c2ccccc2OC(F)(F)F)C1 (configuration not stated) | inactive: 16.3%
15 | O=C(Cc1ccc(Br)cc1)N1CCN(c2ccccn2)CC1 | inactive: 11.6%
16 | O=C(/C=C/c1ccccc1Cl)OCC(=O)N1CCCC1 | inactive: -4.8%
17 | CN(c1cccc(NC(=O)c2ccccc2N(C)S(=O)(=O)c2ccccc2)c1)S(C)(=O)=O | inactive: -0.414%
18 | CCCCC(=O)c1c(O)c2ccccc2oc1=O | inactive: -89.3%
19 | COC(=O)c1ccc(-c2ccc(/C=N/NC(=O)CC3(C)OCCCO3)o2)cc1 | inactive: 14.3%
20 | COCc1c(C(=O)NC(C)c2ccc(S(N)(=O)=O)cc2)oc2ccccc12 (configuration not stated) | inactive: 20.1%
21 | COc1ccc(CN2CCN(C(=O)C3CCC(CNS(=O)(=O)c4ccc(C)cc4)CC3)CC2)c(OC)c1OC (configuration not stated) | inactive: -4.03%
22 | Cc1ccc(C)c(C(=O)COC(=O)CNS(=O)(=O)c2ccccc2)c1 | inactive: 16.4%

Row | Structure (SMILES) | growth rescue (activation)
23 | Cc1cc(N2CCCC2=O)ccc1S(=O)(=O)NC1CCCCC1 | inactive: 4.07%
24 | Cc1ccc(NC(=O)c2ccc3c(c2)N(CC(=O)NC(C)C)C(=O)C(C)(C)O3)cc1 | inactive: 2.38%
25 | CCOc1ccc(/C=C/C(O)=C2/C(=O)NC3(C)CC2c2ccccc2O3)cc1OC (configuration not stated) | inactive: 13.2%
26 | COc1cc(/C=C/C(=O)c2ccc(NS(=O)(=O)c3ccc(C)cc3)cc2)cc(OC)c1O | inactive: 11.9%
27 | Cc1cccc2[nH]c(CN(C)C(=O)CC3C(=O)NCCN3CC(C)(C)C)nc12 (configuration not stated) | inactive: -3.09%
28 | O=C(CCC1CCCN(C(=O)CCN2CCCCC2=O)C1)NCc1ccccc1F (configuration not stated) | inactive: 5.52%
29 | O=C(Nc1cc(S(=O)(=O)N2CCCCC2)ccc1N1CCOCC1)c1ccc(F)cc1 | inactive: 9.01%
30 | O=C(OCC(=O)N1CCOCC1)c1ccccc1OCc1ccccc1Cl | inactive: 9.47%
31 | C=CCn1c(=S)[nH]c2scc(-c3ccco3)c2c1=O | inactive: 10.4%
32 | Cc1cc(C)n(C(=O)c2ccc([N+](=O)[O-])c(Cl)c2)n1 | inactive: 12.7%
33 | CCOc1ccc(NC(=O)CCS(=O)(=O)c2ccc(C)cc2)cc1 | inactive: 3.06%
34 | COc1cccc(NC(=O)CN2C(=O)NC3(CCCCCC3)C2=O)c1 | inactive: -10.4%
35 | CCN(CC)c1ccc(C(=O)OCC(=O)Nc2ccc3[nH]c(=O)[nH]c3c2)cc1 | inactive: 8.58%
36 | NS(=O)(=O)c1ccc(NC(=O)CN2CCCC2)cc1 | inactive: 13.5%
37 | CCOc1ccc(NC(=O)N(CCN2CCOCC2)Cc2ccc3c(c2)CCCN3CC)cc1 | inactive: 21.6%
38 | CC1CN(C(=O)c2cccc(COc3ccccc3Cl)c2)CC(C)O1 (configuration not stated) | inactive: 9.37%
39 | CC(C)C(NS(=O)(=O)c1ccc2c(c1)OCCCO2)C(=O)O (configuration not stated) | inactive: -4.55%
40 | COc1ccccc1N(C)S(=O)(=O)c1ccc(C(=O)OCC(=O)N(C)c2ccccc2)cc1 | inactive: 10.9%
41 | CC(c1ccco1)N(C(=O)c1ccccc1NS(=O)(=O)c1cccc([N+](=O)[O-])c1)c1ccccn1 (configuration not stated) | inactive: 0.436%
42 | N#Cc1ccc(-c2ccc(OCC(O)CN3CCCCC3)cc2)cc1 (configuration not stated) | inactive: -10.6%
43 | Cc1ccc(-c2cnc(C(O)c3cc(Cl)cc(Cl)c3)[nH]2)cc1 (configuration not stated) | inactive: 11.1%
44 | COc1ccc(S(=O)(=O)NCCSCc2ccc(Cl)cc2)cc1NC(C)=O | inactive: 13.6%

Row | Structure (SMILES) | growth rescue (activation)
45 | Cc1ccc(CN2CCN(/N=C/c3cccs3)CC2)cc1 | inactive: 6.8%
46 | O=c1[nH]c(=O)c2ccccc2o1 | inactive: -6.52%
47 | CC(C)(CNCc1ccccc1)NS(=O)(=O)c1ccc(Cl)cc1 | inactive: 19.6%
48 | NC(=O)c1ccc[n+](CC(=O)c2ccccc2)c1 | inactive: -6.67%
49 | Cc1ccc(S(=O)(=O)N2CCCC(C(=O)NCc3ccccc3F)C2)cc1 (configuration not stated) | inactive: -2.12%
50 | COc1ccc(S(=O)(=O)N2CCN(c3ccccc3)CC2)cc1C(=O)N1CCCC1 | inactive: 14.7%
51 | CNCc1cc(Br)c(OCC(=O)Nc2ccccc2OC)c(OC)c1 | inactive: 10.1%
52 | COc1cc(CNC(=O)c2cc(-c3ccc(OC)cc3C)n[nH]2)cc(OC)c1 | inactive: 8.45%
53 | O=C1NC(=O)/C(=C\c2cn(CC(=O)N3CCOCC3)c3ccccc23)S1 | inactive: 7.37%
54 | CCn1c(SCC(=O)N2CCOCC2)nnc1-c1ccco1 | inactive: 4.81%
55 | CN(C)S(=O)(=O)N1CCC(n2nccc2NC(=O)CCc2ccccc2)CC1 | inactive: 4.67%
56 | CC(C)CNC(=O)CSc1nnc2ccccn12 | inactive: 2.57%
57 | O=C(CN(C(=O)CCC(=O)Nc1nccs1)c1ccc(F)cc1)NCc1ccc2c(c1)OCO2 | inactive: 1.86%
58 | Cc1nc(C)c(C(=O)N/N=C/c2ccco2)s1 | inactive: -2.11%
59 | CCN(CC)c1ccc(S(=O)(=O)N2CCOCC2)cc1NS(C)(=O)=O | inactive: 10.6%
60 | CN1CCSc2ccc(C(=O)Nc3ccc(Cl)cc3)cc21 | inactive: 0.767%
61 | O=c1[nH]c2ccccc2c(=O)n1Cc1ccco1 | inactive: 7.43%
62 | CC(CN1C(C)CCCC1C)OC(=O)c1cccc(Br)c1 (configuration not stated) | inactive: 4.98%
63 | O=S(=O)(c1cccs1)N1CN(Cc2cccs2)c2nc3ccccc3nc21 | inactive: -0.805%
64 | N#CC1=C(N)Oc2n[nH]c(-c3ccc(F)cc3)c2C1c1cccnc1 (configuration not stated) | inactive: 19.5%
65 | CN(Cc1cn(-c2ccccc2)nc1-c1ccc(F)cc1)C(=O)CCC(=O)O | inactive: 8.55%
66 | Cc1cc(=O)oc2cc(OCC(=O)OCC(=O)NCCc3ccccc3)ccc12 | inactive: 7.72%

Row | Structure (SMILES) | growth rescue (activation)
67 | CCOc1ccccc1NC(=O)CN1CCC(C(=O)c2ccc(F)cc2)CC1 | inactive: 12.7%
68 | CCOc1ccccc1CN1CCN(C2CCSCC2)CC1CCO (configuration not stated) | inactive: 7.36%
69 | O=C(Nc1ccccc1C(=O)O)c1cc(S(=O)(=O)N2CCCCCC2)ccc1Cl | inactive: 1.94%
70 | O=C(Cc1nc2ccccc2[nH]1)c1ccc(Br)cc1 | inactive: 16.4%
71 | C=CCn1cc([N+](=O)[O-])nc1C | inactive: -24.7%
72 | COc1ccc(C2Nc3ccccc3C(=O)N2NC(C)=O)c(OC)c1 (configuration not stated) | inactive: -4.18%
73 | CC1(C)NC(=O)N(CC(=O)OCC(=O)c2ccc(Br)s2)C1=O | inactive: 16.7%
74 | Oc1ccc(Cn2ccnc2)c2cccnc12 | inactive: -9.8%
75 | COc1cccc(C(=O)N(C)C(C)c2nc3ccccc3s2)c1 (configuration not stated) | inactive: -9.45%
76 | Cc1cc(C(=O)Nc2c(C)cccc2C)n(-c2ccccc2)n1 | inactive: 2.11%
77 | COc1ccc(NC(=O)c2cc(C3CCCCN3S(=O)(=O)Cc3ccccc3)on2)c(C)c1 (configuration not stated) | inactive: 22.3%
78 | CCN1C(=O)C(C(=O)NC(C)c2ccccc2)C2CC1(C)Oc1ccccc12 (configuration not stated) | inactive: 11.4%
79 | N#Cc1c(-c2ccccc2)nc(-c2ccccc2)nc1N1CCOCC1 | inactive: 3.63%
80 | CCCCNC(=O)CSc1nnc(NC(C)=O)s1 | inactive: 7.31%
81 | CCN(CC1CCCO1)C(=O)CCc1nnc(Cc2ccc3c(c2)OCO3)o1 (configuration not stated) | inactive: -2.33%
82 | CC(=O)c1cccc(NC(=S)NC2CC2)c1 | inactive: 10.1%
83 | CCC(=O)c1ccc(OCC(=O)OCC(=O)N(CCC#N)c2ccc3c(c2)OCCO3)cc1 | inactive: 1.02%
84 | O=C(Nc1ccc(Br)cc1)c1cccc(N2C(=O)C3CCCCC3C2=O)c1 (configuration not stated) | inactive: 4.88%
85 | CCCNC(=O)c1cc(C2CCCN(C(=O)c3ccc4ccccc4c3)C2)on1 (configuration not stated) | inactive: 5.39%
86 | CS(=O)(=O)N(CC(=O)NCC1CCCO1)c1cc(Cl)c(Cl)cc1Cl (configuration not stated) | inactive: 3.27%
87 | COc1ccc(Br)cc1/C=C/c1ccc2cccc(O)c2n1 | inactive: 23.9%
88 | CCOC(=O)c1c(C)[nH]c(C)c1C(=O)COC(=O)c1ccc(OC)c(OC)c1 | inactive: 2.14%

Row | Structure (SMILES) | growth rescue (activation)
89 | CN(C)c1ccc(C(C(=O)NCC2CCCO2)N(C(=O)c2snc(C(N)=O)c2N)c2ccc3c(c2)OCO3)cc1 (configuration not stated) | inactive: 12.7%
90 | O=C(O)c1cccc(NS(=O)(=O)c2cc(S(=O)(=O)c3ccc(Cl)cc3)ccc2Cl)c1 | inactive: -10.8%
91 | CCc1cccc2c(C(=O)COC(=O)c3cccc(S(=O)(=O)N(C)C4CCCCC4)c3)c[nH]c12 | inactive: 5.47%
92 | N=c1ccn(Cc2c(Cl)cccc2Cl)cc1 | inactive: 5.51%
93 | COC(=O)c1ccc(COC(=O)c2cccn2C)o1 | inactive: -1.17%
94 | CCOC(=O)Cc1nnc(NC(=O)CCc2ccccc2)s1 | inactive: 14.1%
95 | COc1ccc(OC)c(S(=O)(=O)N2CCCC(C(=O)NCc3ccncc3)C2)c1 (configuration not stated) | inactive: 5.76%
96 | C/C(=N\NC(=O)Cc1cccn1C)c1ccco1 | inactive: 2.81%
97 | CCOC(=O)c1sc(NC(=O)CNCc2ccccn2)c(C(=O)OCC)c1C | inactive: -10.1%
98 | CCOC(=O)c1nnn(-c2nonc2N)c1CNc1ccc(C)c(Br)c1 | inactive: 38.2%
99 | COc1ccccc1N1CCN(C(=O)c2cc3c(=O)n4cccc(C)c4nc3s2)CC1 | inactive: -5.59%
100 | COc1ccc(O)c(-c2cc(-c3ccc(F)cc3)n[nH]2)c1 | inactive: 20.2%
101 | O=C(NN1C(=O)c2ccccc2NC1c1ccc([N+](=O)[O-])o1)c1ccccc1 (configuration not stated) | inactive: 29.2%
102 | CN1/C(=C\C(=O)Nc2ccc(F)cc2)C(C)(C)c2ccccc21 | inactive: -2.19%
103 | COC(=O)c1ccccc1S(=O)(=O)N1CCC(C(=O)Nc2ccc(N3CCOCC3)cc2)CC1 | inactive: 0.36%
104 | CNc1nc(-c2ccc3c(c2)CCN3C(=O)c2ccccc2F)c(C)s1 | inactive: 9.11%
105 | COc1cc(C(=O)Nc2ccc(S(=O)(=O)Nc3ncccn3)cc2)c([N+](=O)[O-])cc1OC | inactive: 2.68%
106 | [O-]C(=C(C(=S)Nc1cccc2ccccc12)[n+]1ccccc1)c1ccc2c(c1)OCCO2 | inactive: -11.3%
107 | COc1ccc(CCn2c(C)nc3c(c(=O)c4ccccc4n3C)c2=O)cc1 | inactive: -5.69%
